Results as given in PubChem BioAssay AID686978 (National Center for Advancing Translational Sciences (NCATS), 2013).
In all, about 420,000 compounds went through this assay and about 64,000 (15%) were called active. The inconclusive results got no clear call from the source; some entries with a clear call stand among them for comparison. Calls follow the shape of the dose curve; as a rule, active = well fitted inhibition curve with a large enough effect; inconclusive = small, poorly fitted or top-dose-only effect; inactive = flat fitted curve, though single readings scatter. Potencies of inconclusive entries are left out as doubtful fits.

Assay: qHTS for Inhibitors of human tyrosyl-DNA phosphodiesterase 1 (TDP1): qHTS in cells in absence of CPT; also: nearly all actives have a fitted effect of over 55% in size
Conditions: DT40 Tdp1-/- hTDP1 cells, no CPT, ATP luminescence, 48 h; series mostly up to 46.2 µM
In short: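 Camptothecin absent (DMSO only). Human TDP1-complemented DT40 knockout cells, 400 cells/well, 37 °C for minimum 48 hr; ATP measured via CellTiter-Glo, 30 min dark incubation, luminescence.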
Potency is read from the fitted curve at half-maximal effect; tags tell the direction and shape of the fitted curve.

SMILES | Potency
COCCCNC(=O)CC1C[C@H](C(=O)N2CCCCC2)[C@@]2(CCc3ccccc3)c3[nH]c4ccc(OC)cc4c3CCN2C1=O (some centres not stated) | inconclusive [inhibitor, single point]
CCOC(=O)c1c(CN(C)C)n(C)c2c(O)c(N=NC(N)=O)c3ccc(Br)cc3c12 | active: 14.6 µM
COC(=O)c1cc(Cl)c(NC(=O)C(C)C)cc1OC | inactive
COC(=O)CCC[C@H]1CC2(C[C@H](CCCO[Si](C)(C)C(C)(C)C)N1C(=O)OC(C)(C)C)OCCO2 | active: 18.4 µM
CCOc1ccccc1-c1nc(Cn2c(=O)cc(C)c3c(C)nn(-c4ccccc4)c32)c(C)o1 | inactive
O=C(CCOc1ccccc1)NO | active: 11.2 µM
CC(NC(=O)C1CCN(CCOc2ccc(Cl)cc2)CC1)c1cccc2ccccc12 (configuration not stated) | inconclusive [inhibitor, single point]
CCOC(=O)c1ccc(-n2c(CN3CCN(CCO)CC3)nc3ccc([N+](=O)[O-])cc3c2=O)cc1 | inconclusive [inhibitor, single point]
Cc1ccc(C(=O)N/N=C\c2c(C)nn(-c3ccccc3)c2Cl)cn1 | inconclusive [inhibitor, single point]
CC(C)N1CCc2c(sc(NC(=O)Cc3ccccc3)c2C#N)C1 | inactive
Oc1ccc(Nc2ncnc3ccccc23)cc1 | inconclusive [inhibitor, partial curve]
COc1ccc(C(CCNCc2ccc(OC(C)C)cc2)c2ccccc2OC)cc1 (configuration not stated) | active: 16.4 µM
COc1ccccc1NC(=O)Cn1ccn(-c2cccc3ccccc23)c(=O)c1=O | inconclusive [inhibitor, single point]
COc1ccc(C(=O)CSc2nnc(NC(=O)C3CC(=O)N(c4cccc(OC)c4)C3)s2)cc1 (configuration not stated) | inconclusive [inhibitor, single point]
CCOc1ccccc1C(=O)NC1CC2CCCC(C1)N2Cc1ccccc1 (configuration not stated) | inconclusive [inhibitor, single point]
COc1cc2oc(=O)cc(-c3cccc(-c4cccc(C)c4)c3)c2c(OC)c1OC | active: 23.1 µM
COc1ccccc1NC(=O)c1csc2c1CCC(C)C2 (configuration not stated) | inconclusive [inhibitor, single point]
Cc1nc(C(=O)NCCC(C)C)sc1C1(C)CC(c2cccc([N+](=O)[O-])c2)=NO1 (configuration not stated) | inconclusive [inhibitor, single point]
O=C(CCNC(=O)c1ccc([N+](=O)[O-])cc1)Nc1cccc(S(=O)(=O)N2CCCCC2)c1 | inconclusive [inhibitor, partial curve]
COc1cc(C23CCCN(CCC(C(C)(C)C)C2)C32OCCO2)cc(OC)c1OC (configuration not stated) | active: 23.1 µM
Oc1c(CN2CCCCC2)ccc2cccnc12 | active: 1.03 µM
Cc1cc(C)cc(OCCCn2c(-c3ccc(Cl)cc3)nc3ccccc3c2=O)c1 | inactive
Cc1cc(C)cc(NC(=O)Oc2ccccc2N2CCCCC2)c1 | inactive
CCn1nnnc1SCC(=O)Nc1cc(OC)cc(OC)c1 | inconclusive [inhibitor, single point]

SMILES | Potency
CC(C)=CCCC(C)CN1CCC(n2nccc2NC(=O)C2CCCC2)CC1 (configuration not stated) | inconclusive [inhibitor, single point]
COc1ccc(/C=C/C(=O)NCCc2ccc(OC)c(OC)c2)cc1 | inconclusive [inhibitor, single point]
Cc1nc(N)[nH]c(=O)c1CCCNc1ccc(CCC2(CCl)OCCO2)cc1 | inconclusive [inhibitor, single point]
COc1cccc(-c2nc(S(=O)(=O)c3ccccc3)c(N3CCOCC3)o2)c1 | inconclusive [inhibitor, single point]
O=C1NC(=O)/C(=C/C(=O)N2CCOCC2)S1 | inactive
Cn1nnnc1SCC1=C(C(=O)O)N2C(=O)[C@@H](NC(=O)[C@H](OC=O)c3ccccc3)[C@H]2SC1 | inactive
COc1ccccc1CNc1ncncc1-c1ccc(C(=O)N(C)C)cc1 | inactive
O=C(Cn1cc(C(=O)COc2ccccc2)c2ccccc21)NCc1ccco1 | inconclusive [inhibitor, single point]
Cc1ccc(C2CC(=O)C=C(Nc3ccc(Cl)cc3)C2)cc1 (configuration not stated) | inconclusive [inhibitor, single point]
Cc1ccc(C)c(S(=O)(=O)Nc2ccc3[nH]c(=O)[nH]c3c2)c1 | inconclusive [inhibitor, single point]
Cc1ccc2c(c1)CN(CCNC(=O)C(C)Oc1ccccc1)CC(C)O2 (configuration not stated) | inactive
COc1ccc(C(CC(=O)NCc2ccc(Cl)cc2)N2Cc3ccccc3C2=O)cc1OC (configuration not stated) | active: 13 µM
C/C(N)=C(/C#N)C(=O)CSc1nnc(-c2ccccc2)n1C | inactive
COC(=O)c1sc(-c2ccccc2)cc1NC(=O)Nc1ccc(F)cc1 | inconclusive [inhibitor, single point]
CCOC(=O)N1CCN(C(=O)c2ccccc2NS(=O)(=O)c2ccc(C)cc2)CC1 | inactive
O=C(COc1ccc(/C=N/NC(=O)c2cc3ccccc3o2)cc1Br)Nc1ccccc1 | active: 18.4 µM
CCOC(=O)c1cc(NC(=O)c2ccccc2)c(=O)oc1-c1ccccc1 | inconclusive [inhibitor, single point]
COc1ccc(Cc2nn3c(-c4cc(OC)c(OC)c(OC)c4)nnc3s2)cc1 | inconclusive [inhibitor, single point]
CC1(c2ccc(OC(F)F)cc2)NC(=O)N(CC(=O)Nc2ccc(N3CCCCC3)cc2)C1=O (configuration not stated) | inconclusive [inhibitor, single point]
O=C(/C=C/c1ccccc1)Nc1ccc(Cl)cn1 | active: 3.26 µM
CC(C)CC(=O)Nc1ccccc1N1CCCC1 | inactive
Cc1cc(C)cc(NC(=O)C2CCCN2S(=O)(=O)c2ccc3nc(-c4ccccc4)[nH]c3c2)c1 (configuration not stated) | active: 14.6 µM
O=C(CSc1nc2ccccc2c(=O)[nH]1)Nc1cccc([N+](=O)[O-])c1 | inactive
O=C(NCc1ccccc1C(F)(F)F)C1CC(c2ccc(C(F)(F)F)cc2)=NO1 (configuration not stated) | inconclusive [inhibitor, single point]

SMILES | Potency
O=c1oc2ccccc2c(NC2CCCCC2)c1NS(=O)(=O)c1ccc(Cl)cc1 | inconclusive [inhibitor, partial curve, poor fit]
O=C(COc1ccc(F)cc1Br)N1CCN(c2ncccn2)CC1 | inconclusive [inhibitor, single point]
O=C(Nc1ccc2nc3n(c(=O)c2c1)CCCCC3)c1cc([N+](=O)[O-])ccc1F | active: 2.59 µM
CCOC(=O)c1[nH]c(C)c(CCC(=O)Nc2ccccc2C(=O)OC)c1C | active: 16.4 µM
CC1CCc2[nH]c3ccc(C(=O)N(C)CC(=O)Nc4ccccc4Br)cc3c2C1 (configuration not stated) | active: 11.6 µM
Cc1ccc(NC(=O)c2nc[nH]c2C(=O)NCCCCCNC(=O)OC(C)(C)C)cc1 | active: 16.4 µM
CCc1nn(CC(=O)NCCc2ccc(Cl)cc2)c(=O)c2cc3ccccc3n12 | inconclusive [inhibitor, single point]
O=C(Nc1ccccc1)C1CCCCN1S(=O)(=O)c1ccccc1 (configuration not stated) | inconclusive [inhibitor, single point]
CCN(CC)Cc1c(C(=O)N/N=C/c2ccc(OCc3ccccc3C)cc2)nnn1-c1nonc1N | inconclusive [inhibitor, single point]
CCc1nnc(NC(=O)CSc2nc3[nH]c(=O)cc(O)c3s2)s1 | active: 6.51 µM
CCC(C)(C)C1CCc2[nH]nc(C(=O)NCc3ccccn3)c2C1 (configuration not stated) | active: 23.1 µM
Cc1oc2ncn(C)c(=O)c2c1C(=O)Nc1ccc(F)cc1 | inactive
O=C(CSc1nc2ccccc2c(=O)[nH]1)Nc1ccccc1C(F)(F)F | inconclusive [inhibitor, single point]
CCc1ccc2oc(=O)cc(CN3CCN(Cc4ccccc4)CC3)c2c1 | active: 20.6 µM
Cc1cccc(N2CCN(C(=O)c3oc(=O)c4ccccc4c3-c3ccccc3)CC2C)c1 (configuration not stated) | inconclusive [inhibitor, single point]
Cc1ccc(CNC(=O)c2ccc3c(c2)N(Cc2ccccc2Cl)C(=O)CS3)cc1 | inconclusive [inhibitor, partial curve]
O=C1NC(=O)/C(=C\c2ccccc2Oc2ccc(F)c(F)c2)S1 | inconclusive [inhibitor, partial curve, poor fit]
Cc1ccc(C2CCN(C(=O)Nc3ccc(Cl)c(Cl)c3)C2)cc1 (configuration not stated) | active: 25.9 µM
Cc1ccc(-c2nnc(Nc3ccccc3)c3ccccc23)cc1S(=O)(=O)N1CCOCC1 | inconclusive [inhibitor, partial curve, poor fit]
CCOc1ccc2nc(N(Cc3cccnc3)C(=O)C3CCCCC3)sc2c1 | inactive
Cc1cccc(OCCCOc2cccc3cccnc23)c1C | active: 18.4 µM
NC[C@@H]1O[C@H](c2ccccc2)Cc2c1ccc(O)c2O | active: 9.44 µM
CCN(CC(=O)Nc1c(F)cccc1F)C(=O)c1ccc(COc2ccccc2)cc1 | inconclusive [inhibitor, single point]
CCNC(=S)N/N=C(\C)c1ccco1 | inconclusive [inhibitor, single point]
